This is one part of the list.
tested on: T1, C. trachomatis L2/434/Bu expressing GFP (CTL2-GFP); set-up: species or system HeLa; C. trachomatis total inclusion area by high-content imaging, normalised to DMSO; conditions: total inclusion area; 28.5 h, 10 µM; inhibitor
T1 construct: L2/434/Bu GFP intracellular growth in HeLa cells
In short: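 High-content imaging followed the bulk GFP/resorufin measurement: fixed, Hoechst-stained cells were scored for GFP inclusions and host nuclei per well. Total inclusion area and count served as growth proxies, nuclei number as the viability proxy. MIC calculation matched the bulk assay.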

Row | Compound | % of control remaining
1 | Cc1noc(-c2ccccc2)c1CN1CCCN(S(=O)(=O)c2ccc(C(F)(F)F)cc2Cl)CC1 [CBK063104] | 77.2233
2 | COc1cc(-c2cnc(N)c(N3CCN(CCN(C)C)CC3)n2)cc(OC)c1OC [CBK063488] | 130.376
3 | O=C(CC1NC(=O)NC1=O)Nc1cccc2ccccc12 (stereo not drawn) [CBK267164] | 91.7697
4 | COC(=O)c1c(NC(=O)CSc2nnc3ccccn23)sc(C)c1C [CBK265943] | 100.809
5 | NC(=O)c1ccc(-c2cnc3[nH]c(=O)n(CCCN4CCOCC4)c3n2)cc1 [CBK065092] | 152.317
6 | c1cnn(CC2CCCN2c2ncnc3sc4c(c23)CCNC4)c1 (stereo not drawn) [CBK307490] | 89.6126
7 | CCCCC1C(=O)N(C)CCN1C(=O)c1cc(C)c(CC)n(C)c1=O (stereo not drawn) [CBK306527] | 77.8368
8 | Cc1ccc([N+](=O)[O-])cc1S(=O)(=O)n1ccc2c(N3CCNCC3)nccc21 [CBK059068C] | 87.9597
9 | Cc1cc(NCc2ccccc2)nc2[nH]nc(N)c12 [CBK287931] | 75.0837
10 | Cc1nc(-c2ccccc2)sc1CNC(=O)CCC(F)(F)F [CBK092365] | 100.698
11 | CCC1CCCCN1C(=O)Cc1c(C)nc(-c2cccnc2)[nH]c1=O (stereo not drawn) [CBK306240] | 36.3485
12 | Cc1cc(NC(=O)C2CCCC2)nc2c1c(=O)oc1ccccc12 [CBK287438] | 94.1863
13 | Nc1ncc(-c2cccc(-c3ccccc3)c2)nc1N1CCN(CCO)CC1 [CBK063410] | 92.9497
14 | CC(C)NC(=O)c1ccc(-n2cccn2)c(C#Cc2cccnc2)c1 [CBK284523] | 118.368
15 | Cc1ccc(-c2noc(CN3CCN(C(c4ccccc4)c4ccccc4)CC3)n2)cc1 [CBK266425] | 116.233
16 | Cc1cc(C)n(C(C)C(=O)N2CCC(Nc3cccnc3)CC2)n1 (stereo not drawn) [CBK305917] | 50.0598
17 | O=C(Cn1cccn1)NCC(c1ccccc1Cl)N1CCOCC1 (stereo not drawn) [CBK305593] | 44.6554
18 | CS(=O)(=O)Nc1ccc(N2CCNCC2)c2ccccc12 [CBK059355C] | 28.7383
19 | Nc1ncc(-c2cccc3cccnc23)nc1N1CCC[C@@H]1CO [CBK063470] | 86.9869
20 | Cc1ccc(C(=O)CSc2nc(O)c3nc[nH]c3n2)cc1 [CBK300520] | 120.787
21 | O=C(O)CCn1c2ccccc2c2cc(I)ccc21 [CBK262578] | 107.939
22 | Cc1cccn2c(=O)c(/C=C3\SC(=S)N(CC4CCCO4)C3=O)c(NCCCn3ccnc3)nc12 (stereo not drawn) [CBK263825] | 52.4901
23 | Cc1cccc(-c2ccc(CC3(C(=O)NC(C)C)CCN(C(=O)C(C)C)CC3)cc2)c1 [CBK285756] | 89.8409
24 | O=C(O)c1ccc(NC(=O)c2cnccn2)cc1 [CBK268110] | 107.295
25 | CC(=O)N1CCC2(CCCC[C@H]3CNCC[C@@H]3NC(=O)CNC2=O)CC1 [CBK292167] | 122.119
26 | Cc1ccc(S(=O)(=O)NC(C)(C)C)cc1C(=O)N(C)Cc1cnn(C)c1 [CBK305433] | 48.1638

Row | Compound | % of control remaining
27 | COc1ccc(C2CC(c3ccc4ccccc4c3)=NN2C(=O)COc2ccccc2C(=O)O)cc1 (stereo not drawn) [CBK297503] | 102.551
28 | O=[N+]([O-])c1ccc(NC(=S)NCCCn2ccnc2)cc1 [CBK264915] | 112.806
29 | O=C(CCc1ccc(-c2ccc(F)cc2)o1)Nc1ccc(C(=O)O)cc1 [CBK300502] | 79.2558
30 | Cc1ccc(-c2nn(CCC#N)cc2C(=O)N2CCOCC2)cc1C [CBK305940] | 42.0118
31 | O=C(Cc1ccc2c(c1)CCC2)N1CCCCC1CN1CCOCC1 (stereo not drawn) [CBK282704] | 106.946
32 | CC(=O)Nc1ccc(S(=O)(=O)N2CCN(S(=O)(=O)c3ccccc3)CC2)cc1 [CBK264163] | 122.088
33 | N#CCCN(C(=O)Nc1ccc2[nH]ccc2c1)C1CCCCC1 [CBK156362] | 90.0223
34 | O=C1CC2(CCNCC2)Oc2c1ccc1ccccc21 [CBK282714] | 49.9902
35 | CCc1nc2ccc(C(=O)NCCN(C)C)cn2c1N(CC)CC(=O)N(C)C [CBK146762] | 97.9849
36 | CC(=O)Nc1ccc(NC(=O)NCC2CCCO2)c(C(F)(F)F)c1 (stereo not drawn) [CBK304150] | 50.5075
37 | Cc1cc(NCc2ccc(C(C)C)cc2)c2ccccc2n1 [CBK122786] | 81.4234
38 | O=C(Nc1ccccc1-c1ccccc1)C1CN(S(=O)(=O)c2ccccc2)CCN1S(=O)(=O)c1ccccc1 (stereo not drawn) [CBK265902] | 79.3386
39 | CCc1c(SCC(=O)O)nc2ccccc2c1C [CBK286928] | 86.5524
40 | COCCN(Cc1ccc(OC)cc1)c1c(C)nc2ccc(C(=O)Nc3ccc(NC(C)=O)cc3)cn12 [CBK146111] | 93.6162
41 | COc1ccc(CN(CCN2CCOCC2)C(=O)Nc2cccnc2)cc1OC [CBK159379] | 108.197
42 | Cc1ccn2cc(-c3ccc4c(c3)CCN4S(C)(=O)=O)nc2c1 [CBK285221] | 95.4007
43 | Cc1cc(-c2ccc(=O)n(CCNC(=O)C3CC3)n2)c(C)o1 [CBK284521] | 74.2069
44 | CN(c1ccc(C(=O)Nc2ccc(S(=O)(=O)N3CCOCC3)cc2)cc1)S(=O)(=O)c1ccccc1 [CBK264129] | 78.163
45 | CCOC(=O)N1CCC(n2c(=O)[nH]c3ccccc32)CC1 [CBK149867] | 116.082
46 | COc1cccc(CNC(=O)Cn2nnc(-c3ccc(CN4CCC(C)CC4)cc3)n2)c1OC [CBK144161C] | 100.845
47 | O=C(COc1cccc(Br)c1)Nc1nnc[nH]1 [CBK264063] | 98.1213
48 | O=C(NCCCn1ccnc1)c1ncoc1-c1ccccc1F [CBK283917] | 98.38
49 | COc1ccc(-c2cncc(NCC3CCOCC3)n2)cc1 [CBK037285] | 73.5254
50 | N#Cc1sc(-c2ccc(F)cc2)cc1NC(=O)c1cccc([N+](=O)[O-])c1 [CBK066845] | 76.1039
51 | CN1CCN([C@H]2[C@@H]3OC[C@@H](O3)[C@@H](NCc3ccc(CO)o3)[C@@H]2O)CC1 [CBK288823] | 85.8618
52 | COc1cc(OC)nc(CN2CCOC3(CCN(C(=O)c4ccc5ccccc5c4)CC3)C2)n1 [CBK161121A] | 80.7134

Row | Compound | % of control remaining
53 | NNC(=O)COc1ccc(Cl)cc1Cl [CBK261671] | 103.646
54 | Cc1ccc(S(=O)(=O)N/N=C/C=C/c2ccc(N(C)C)cc2)cc1 [CBK265078] | 106.805
55 | Cc1ccc(-c2nc3ccccc3c(=O)o2)cc1C [CBK288137] | 80.362
56 | CS(=O)(=O)N1CCC(C(=O)NC(c2ccccc2)c2ccccc2)CC1 [CBK269801] | 92.2562
57 | Cc1cccc(-c2ncc(C(=O)NCCN3CCOCC3)cc2-c2ccc(O)cc2)c1 [CBK037435] | 126.75
58 | Fc1ccccc1CSc1nnc(-c2cnccn2)n1Cc1ccco1 [CBK267556] | 105.186
59 | Cc1cc(N2C(=O)CC(N3CCC(C(=O)N4CCOCC4)CC3)C2=O)no1 (stereo not drawn) [CBK269035] | 78.994
60 | COc1ccc([C@@]23CC[C@H](NC(=O)c4[nH]cnc4C)C[C@@H]2N(C)CC3)cc1OC [CBK038097] | 101.095
61 | Nc1ccc(-c2cn3ccnc3c(NCC3CC3)n2)cc1 [CBK066677] | 160.231
62 | CCN1C(=O)CC(N2CCN(c3cc(-c4ccc(OC)cc4)nc(C)n3)CC2)C1=O (stereo not drawn) [CBK269744] | 73.4282
63 | CC1(C(F)(F)F)OC(NC2C3CC4CC(C3)CC2C4)=NC1=O (stereo not drawn) [CBK115312] | 88.2
64 | Cc1cccc(C(=O)Nc2ncn(CC(=O)N3CCCCCC3)n2)n1 [CBK304954] | 74.1242
65 | Cn1ncc2c(SCc3cc4c(cc3Br)OCCO4)ncnc21 [CBK297732] | 60.1948
66 | CN(C(=O)c1cccn1C)C1CCN(c2ncnc3ccccc23)CC1 [CBK306110] | 61.3822
67 | Cc1cc(-c2cc(=O)n(CCc3ccccc3)nc2-c2ccco2)on1 [CBK282879] | 95.7642
68 | O=C(O)/C=C/c1cn(-c2ccccc2)nc1-c1cccs1 [CBK263119] | 107.667
69 | COc1ccc(CN2CCCN(c3cc(OCC4COc5ccccc5O4)ncn3)CC2)cc1 (stereo not drawn) [CBK083255T] | 31.3397
70 | COc1ccc(C(=O)C2=C(O)C(=O)N(CCCN(C)C)C2c2ccncc2)cc1Cl (stereo not drawn) [CBK266529] | 103.815
71 | Cc1noc(C)c1NC(=O)c1cncn1C [CBK200396] | 64.3461
72 | OC(CN1CCNCC1)Cn1c2ccc(Cl)cc2c2cc(Cl)ccc21 (stereo not drawn) [CBK094277G] | 8.949
73 | COc1ccccc1-c1cc([C@H]2CN3CC[C@H]2C[C@@H]3CNC(=O)c2ccco2)nc(C)n1 [CBK289119] | 110.458
74 | COCC(=O)N1CCc2sccc2C1c1ccc(NC(=O)c2ccc(OC)cc2)cc1 (stereo not drawn) [CBK286467] | 73.8088
75 | CS(=O)(=O)c1ccc(-c2ccc(C(=O)NCc3ccccc3)cn2)cc1 [CBK158885] | 99.9057
76 | COc1cc(NC(=O)NCC2CCN(CCOc3c(OC)cccc3OC)CC2)cc(OC)c1 [CBK051514] | 110.898
77 | CCC(=O)Nc1nnc(-c2ccc3c(c2)OCCO3)o1 [CBK287404] | 98.2702
78 | OCCN1CCN(c2nnc(-c3ccccc3)cc2-c2ccccc2)CC1 [CBK270045] | 84.4227

From paper PMC12040169 (PLOS Biology, 2025)
